According to the supplement of paper PMC3334620:
Whole data set: some 33,000 sequences, median “E-score (-0.5 to 0.5)” near -0.041, cut for the highest 2% near 0.37. Some of the results follow.

The sequences below were run against T1, Ecm22 (UniProt Q05958) (assay: PBM E-score (8-mer binding enrichment) (E-score (-0.5 to 0.5)); higher = stronger / more preferred TF binding; most listed sequences are background and not binding sites). Conditions: protein concentration: 200 nM; construct: GST-full length.
T1 sequence: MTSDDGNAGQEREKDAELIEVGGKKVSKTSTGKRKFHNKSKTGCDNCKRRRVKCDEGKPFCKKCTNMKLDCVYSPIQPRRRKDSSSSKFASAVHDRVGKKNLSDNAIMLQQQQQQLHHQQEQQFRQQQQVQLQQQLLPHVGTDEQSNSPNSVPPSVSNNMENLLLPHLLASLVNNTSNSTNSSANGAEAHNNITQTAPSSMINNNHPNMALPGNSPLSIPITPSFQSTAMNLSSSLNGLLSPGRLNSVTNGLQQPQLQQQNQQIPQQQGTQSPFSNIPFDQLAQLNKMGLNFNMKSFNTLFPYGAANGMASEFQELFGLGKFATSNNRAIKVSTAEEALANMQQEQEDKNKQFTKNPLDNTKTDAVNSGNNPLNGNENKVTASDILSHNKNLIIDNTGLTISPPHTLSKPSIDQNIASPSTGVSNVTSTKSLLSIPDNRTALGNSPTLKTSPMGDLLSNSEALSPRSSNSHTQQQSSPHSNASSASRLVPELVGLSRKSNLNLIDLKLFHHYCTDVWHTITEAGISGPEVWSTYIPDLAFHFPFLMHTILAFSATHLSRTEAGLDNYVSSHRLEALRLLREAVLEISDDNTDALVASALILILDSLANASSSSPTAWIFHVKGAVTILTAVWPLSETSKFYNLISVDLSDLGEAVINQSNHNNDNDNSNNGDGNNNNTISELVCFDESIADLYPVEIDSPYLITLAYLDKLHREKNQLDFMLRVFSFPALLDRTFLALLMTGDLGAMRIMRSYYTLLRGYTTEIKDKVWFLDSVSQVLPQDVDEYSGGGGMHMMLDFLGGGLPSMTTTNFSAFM
Method in brief: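 Bound GST-tagged yeast transcription factors, applied at about 100-200 nM to double-stranded universal all-10-mer Agilent arrays, were detected with fluorescent anti-GST. Scans were normalised with masliner. A modified Wilcoxon-Mann-Whitney statistic, the E-score, was assigned to each ungapped eight-base word pooled with its reverse complement by the Universal PBM Analysis Suite.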

| Sequence | PBM E-score |
| --- | --- |
| GGAGAAAA | -0.112 |
| TCATCTAA | 0.0209 |
| AGATGACA | -0.206 |
| TATCCGGA | 0.11 |
| CCACAACG | 0.0279 |
| GCCGTAAA | 0.366 |
| ATTCTTTA | 0.0137 |
| GCCATGCA | -0.175 |
| CCGGGGCG | -0.103 |
| CAATCGTG | -0.215 |
| CATCCACG | -0.0554 |
| GGTCGAAC | 0.102 |
| GGTAGTAA | -0.0356 |
| AAGGTCGA | -0.0116 |
| GCGCGCTA | 0.122 |
| GTATCTCA | 0.017 |
| AGATTGCG | 0.0917 |
| CACCGTCA | -0.0843 |
| TAATTGAA | -0.239 |
| CCAGCGCC | -0.027 |
| AGACGAAA | 0.194 |
| GATCCCGC | 0.0461 |
| CGAGATCG | 0.254 |
| AATCCCAT | -0.218 |
| AAGATGCA | -0.11 |

| Sequence | PBM E-score |
| --- | --- |
| CCGAGTCC | 0.0498 |
| CGCGTCCA | 0.0786 |
| GGATACCC | -0.00516 |
| CGCCTTTC | 0.0685 |
| ATAAATGA | 0.0138 |
| CCGGTAGG | -0.192 |
| GCTTCTCA | -0.178 |
| CACTCGGC | 0.215 |
| AACTACTC | -0.09 |
| CCTCGGGA | 0.0836 |
| AGTCTTTC | -0.108 |
| ATGCACCA | -0.108 |
| AACTTTAC | 0.0789 |
| AAGCGAAT | 0.277 |
| CATAATAG | 0.15 |
| GTACCACA | 0.256 |
| CGGGCAAC | 0.0612 |
| AGCTTCAT | 0.0197 |
| CCATATCA | 0.0475 |
| CGACCCGC | 0.03 |
| GTTTTTTA | -0.014 |
| ACGCCTGG | -0.0525 |
| ACATTATC | 0.135 |
| CTAGGCAG | -0.158 |
| AATTCCTA | 0.0294 |

| Sequence | PBM E-score |
| --- | --- |
| CCACAACA | -0.209 |
| GAGTCACA | 0.0764 |
| ACATGGAA | -0.0701 |
| ACACCGGT | -0.0618 |
| CGACCAGC | 0.0769 |
| CGTTCCGA | 0.444 |
| ACCGGGAT | 0.0438 |
| AGTCATAC | 0.12 |
| ACCCTACG | -0.142 |
| GCACATCC | -0.102 |
| GTCGCAAA | 0.278 |
| GGGAGGCA | -0.188 |
| ATCCTCTC | -0.128 |
| AGGCTGTA | -0.15 |
| ACAAAGAT | -0.0464 |
| CGTACCCC | 0.453 |
| ACAATATA | 0.243 |
| CTCCAGTA | -0.0273 |
| CTATGCAA | -0.0583 |
| CGCTCCTC | 0.193 |
| ACTGCCAT | 0.0746 |
| TAACCAGA | 0.018 |
| ACGGTACC | 0.206 |
| ATGTACAA | -0.0165 |
| CCGAATAG | 0.0447 |

| Sequence | PBM E-score |
| --- | --- |
| CATCAGTC | -0.184 |
| ACCTAGGC | -0.309 |
| ACCCCAAC | -0.205 |
| ACGCAGTG | -0.00625 |
| ACGTGGAT | 0.133 |
| ATGCGAGC | 0.321 |
| CCACACTC | -0.00392 |
| ACTCTGCT | -0.207 |
| ACACTTTC | -0.0308 |
| GCACGTAC | 0.168 |
| ATACAAAA | 0.131 |
| ACAAAGAC | 0.0577 |
| CTCTAAGC | 0.00902 |
| GCTGTGTA | -0.127 |
| CATAGGGA | -0.272 |
| CCCCCTCA | -0.37 |
| ACTGTGTA | 0.137 |
| ATATTTTG | -0.0981 |
| AGTTACTC | 0.186 |
| ACGCTATA | 0.233 |
| ATATATAA | 0.194 |
| CCTTTTAG | -0.0518 |
| AAATTGAC | -0.124 |
| CCCGTATA | 0.471 |
| ATGTCTCA | -0.207 |

| Sequence | PBM E-score |
| --- | --- |
| TCCTACGA | 0.26 |
| TTCCCGAA | 0.17 |
| AAGCTCTC | -0.212 |
| AGTGGGGA | -0.227 |
| GAGCGCAA | -0.106 |
| TCGTATCA | 0.463 |
| GCGGGTTA | 0.166 |
| CGAGTCAC | 0.106 |
| CCGCGAGA | 0.00959 |
| AAATTATC | 0.178 |
| CGTTTGAC | 0.326 |
| AGATTGAC | -0.0446 |
| GTGTAGGA | -0.226 |
| GACGTAAC | -0.079 |
| ACAGGCGC | -0.11 |
| AGCAGAAG | -0.125 |
| GAAGGATA | -0.196 |
| CACGCGAA | 0.103 |
| CACAAGTG | -0.0896 |
| AATCTGCA | -0.242 |
| ATTTATGA | -0.0687 |
| ATCCTTTA | -0.159 |
| GTGTATGA | -0.014 |
| ATGATCGG | 0.0102 |
| ACGGTTAA | 0.132 |

| Sequence | PBM E-score |
| --- | --- |
| AGAGGTAT | 0.111 |
| GAACAAAA | 0.099 |
| CACTATCA | -0.0654 |
| TCTTTGAA | -0.0346 |
| CCCACATA | -0.0298 |
| ACCCAGGA | -0.107 |
| ATTTCTAG | -0.178 |
| AACCAAAA | -0.173 |
| CAGTTCAA | -0.138 |
| CGCTCCGC | 0.176 |
| CCAGCACA | -0.3 |
| GTAGTGAA | -0.16 |
| TAGGCTAA | -0.139 |
| GGGATTTA | -0.0568 |
| AAGCTGTG | -0.0491 |
| ATGAGCTA | -0.105 |
| GTTAAATA | 0.115 |
| ACCATCAT | -0.0474 |
| CAGCACGA | 0.0386 |
| GAACGGCA | 0.334 |
| GCCGCTAC | 0.0212 |
| AGTATGTG | -0.0336 |
| CACGTAAC | -0.149 |
| TGTGAGAA | -0.146 |
| GAGAGTCA | -0.193 |

| Sequence | PBM E-score |
| --- | --- |
| TCCACCCA | -0.217 |
| ACGGGATC | 0.289 |
| TAAGTCTA | -0.254 |
| ATCAGCTC | -0.0122 |
| ATGTAGTA | 0.0421 |
| GCACTGAA | -0.0899 |
| TGTTGAAA | 0.0108 |
| CTTTAGGA | -0.187 |
| CGGCCCCC | -0.203 |
| CTAACCCA | -0.294 |
| AACATTCC | -0.251 |
| CGATTCCA | -0.0291 |
| GGTTAACC | -0.0654 |
| AAGCGTCA | 0.0381 |
| GGCCGCCC | -0.299 |
| AACCTTTG | -0.225 |
| ATGAAACC | -0.143 |
| AGGTTACC | -0.0237 |
| CGAGGTTC | 0.214 |
| AATTGTGA | -0.00565 |
| CGGAGTTC | 0.132 |
| AGTCCCAA | -0.193 |
